# Assay results: the supplement of paper PMC8728848
# This is one part of the list.
# B1: Langerin (Homo sapiens), Q9UJ71 (protein)
# chain: STLNAQIPELKSDLEKASALNTKIRALQGSLENMSKLLKRQNDILQVVSQGWKYFKGNFYYFSLIPKTWYSAEQFCVSRNSHLTSVTSESEQEFLYKTAGGLIYWIGLTKAGMEGDWSWVDDTPFNKVQSARFWIPGEPNDAGNNEHCGNIKAPSLQAWNDAPCDITFLFICKRPYVPSEP
# What was measured:
# Assay in all cases: glycan array binding signal (z-score within array); higher = stronger binding
# Conditions in all cases: glycan notation: IUPAC condensed, linker removed; mutation: N288D, K313I
# [1] = target: Gal(b1-4)GlcNAc(b1-3)Gal(b1-4)GlcNAc(b1-3)[Gal(b1-4)GlcNAc(b1-3)Gal(b1-4)GlcNAc(b1-6)]GalNAc
# How it was run: (§1)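 Glycan array data came from 3228 arrays in the Consortium for Functional Glycomics database, and only arrays with an available protein sequence were kept. Glycan names were put into IUPAC-condensed notation, and columns mapping to the same glycan were averaged. The binding signal is a within-array Z-score, averaged across arrays of one protein sequence run at different concentrations or buffers and across linkers. A negative Z-score can be read as non-binding.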
# [2] = target: Gal(b1-4)GlcNAc(b1-3)Gal(b1-4)GlcNAc(b1-6)[Gal(b1-3)]GalNAc
# How it was run: as §1
# [3] = target: Gal(b1-4)GlcNAc(b1-3)Gal(b1-4)[Fuc(a1-3)]GlcNAc(b1-3)Gal(b1-4)[Fuc(a1-3)]GlcNAc
# How it was run: as §1
# [4] = target: Gal(b1-4)GlcNAc(b1-3)GalNAc
# How it was run: as §1
# [5] = target: Gal(b1-4)GlcNAc(b1-3)[Fuc(a1-3)GlcNAc(b1-6)]Gal(b1-4)Glc
# How it was run: as §1
# [6] = target: Gal(b1-4)GlcNAc(b1-3)[Gal(b1-4)GlcNAc(b1-6)]Gal(b1-4)GlcNAc
# How it was run: as §1
# [7] = target: Gal(b1-4)GlcNAc(b1-3)[GlcNAc(b1-6)]Gal(b1-4)GlcNAc
# How it was run: as §1
# [8] = target: Gal(b1-4)GlcNAc(b1-6)Gal(b1-4)GlcNAc
# How it was run: as §1
# [9] = target: Gal(b1-4)GlcNAc(b1-6)GalNAc
# How it was run: as §1
# [10] = target: Gal(b1-4)GlcNAc(b1-6)[Gal(b1-3)]GalNAc
# How it was run: as §1
# [11] = target: Gal(b1-4)GlcNAc(b1-6)[Gal(b1-4)GlcNAc(b1-3)]GalNAc
# How it was run: as §1
# Gal(b1-4)GlcNAc6P = target: Gal(b1-4)GlcNAc6P
# How it was run: as §1
# Gal(b1-6)Gal = target: Gal(b1-6)Gal
# How it was run: as §1
# Gal3S(b1-3)GalNAc = target: Gal3S(b1-3)GalNAc
# How it was run: as §1
# Gal3S(b1-3)GlcNAc = target: Gal3S(b1-3)GlcNAc
# How it was run: as §1
# [12] = target: Gal3S(b1-3)[Fuc(a1-4)]GlcNAc
# How it was run: as §1
# Gal3S(b1-4)Glc = target: Gal3S(b1-4)Glc
# How it was run: as §1
# Gal3S(b1-4)Glc6S = target: Gal3S(b1-4)Glc6S
# How it was run: as §1
# Gal3S(b1-4)GlcNAc = target: Gal3S(b1-4)GlcNAc
# How it was run: as §1
# [13] = target: Gal3S(b1-4)[Fuc(a1-3)]Glc6S
# How it was run: as §1
# [14] = target: Gal3S(b1-4)[Fuc(a1-3)]GlcNAc
# How it was run: as §1
# [15] = target: Gal3S(b1-4)[Fuc(a1-3)]GlcNAc6S
# How it was run: as §1
# Gal3S4S(b1-4)GlcNAc = target: Gal3S4S(b1-4)GlcNAc
# How it was run: as §1
# Gal3S6S(b1-4)GlcNAc = target: Gal3S6S(b1-4)GlcNAc
# How it was run: as §1
# Gal3S6S(b1-4)GlcNAc6S = target: Gal3S6S(b1-4)GlcNAc6S
# How it was run: as §1
# Gal4S(b1-4)GlcNAc = target: Gal4S(b1-4)GlcNAc
# How it was run: as §1
# Gal4S6S(b1-4)GlcNAc = target: Gal4S6S(b1-4)GlcNAc
# How it was run: as §1
# Gal6P(b1-4)GlcNAc = target: Gal6P(b1-4)GlcNAc
# How it was run: as §1
# Gal6S(b1-3)GlcNAc = target: Gal6S(b1-3)GlcNAc
# How it was run: as §1
# Gal6S(b1-3)GlcNAc6S = target: Gal6S(b1-3)GlcNAc6S
# How it was run: as §1
# Gal6S(b1-4)Glc = target: Gal6S(b1-4)Glc
# How it was run: as §1
# Gal6S(b1-4)Glc6S = target: Gal6S(b1-4)Glc6S
# How it was run: as §1
# Gal6S(b1-4)GlcNAc = target: Gal6S(b1-4)GlcNAc
# How it was run: as §1
# Gal6S(b1-4)GlcNAc6S = target: Gal6S(b1-4)GlcNAc6S
# How it was run: as §1
# GalNAc(a1-3)Gal = target: GalNAc(a1-3)Gal
# How it was run: as §1
# GalNAc(a1-3)GalNAc = target: GalNAc(a1-3)GalNAc
# How it was run: as §1
# [16] = target: GalNAc(a1-3)GalNAc(b1-3)Gal(a1-4)Gal(b1-4)Glc
# How it was run: as §1
# [17] = target: GalNAc(a1-3)GalNAc(b1-3)Gal(a1-4)Gal(b1-4)GlcNAc
# How it was run: as §1
# GalNAc(b1-3)Gal = target: GalNAc(b1-3)Gal
# How it was run: as §1
# [18] = target: GalNAc(b1-3)Gal(a1-4)Gal(b1-4)GlcNAc
# How it was run: as §1
# [19] = target: GalNAc(b1-3)Gal(a1-4)Gal(b1-4)GlcNAc(b1-3)Gal(b1-4)Glc
# How it was run: as §1
# [20] = target: GalNAc(b1-3)Gal(a1-6)Gal(b1-4)Glc
# How it was run: as §1
# GalNAc(b1-3)GalNAc = target: GalNAc(b1-3)GalNAc
# How it was run: as §1
# GalNAc(b1-3)GlcNAc = target: GalNAc(b1-3)GlcNAc
# How it was run: as §1
# GalNAc(b1-4)Gal(b1-4)Glc = target: GalNAc(b1-4)Gal(b1-4)Glc
# How it was run: as §1
binder,measurement,setting,value
B1,glycan array binding signal (z-score),[1],-0.136
same,glycan array binding signal (z-score),[2],-0.063
same,glycan array binding signal (z-score),[3],-0.228
same,glycan array binding signal (z-score),[4],-0.274
same,glycan array binding signal (z-score),[5],1.04
same,glycan array binding signal (z-score),[6],-0.17
same,glycan array binding signal (z-score),[7],-0.31
same,glycan array binding signal (z-score),[8],-0.271
same,glycan array binding signal (z-score),[9],0.001
same,glycan array binding signal (z-score),[10],0.04
same,glycan array binding signal (z-score),[11],0.151
same,glycan array binding signal (z-score),Gal(b1-4)GlcNAc6P,-0.382
same,glycan array binding signal (z-score),Gal(b1-6)Gal,-0.126
same,glycan array binding signal (z-score),Gal3S(b1-3)GalNAc,-0.187
same,glycan array binding signal (z-score),Gal3S(b1-3)GlcNAc,-0.136
same,glycan array binding signal (z-score),[12],-0.219
same,glycan array binding signal (z-score),Gal3S(b1-4)Glc,-0.16
same,glycan array binding signal (z-score),Gal3S(b1-4)Glc6S,-0.184
same,glycan array binding signal (z-score),Gal3S(b1-4)GlcNAc,-0.217
same,glycan array binding signal (z-score),[13],0.149
same,glycan array binding signal (z-score),[14],-0.313
same,glycan array binding signal (z-score),[15],-0.1
same,glycan array binding signal (z-score),Gal3S4S(b1-4)GlcNAc,-0.333
same,glycan array binding signal (z-score),Gal3S6S(b1-4)GlcNAc,-0.209
same,glycan array binding signal (z-score),Gal3S6S(b1-4)GlcNAc6S,-0.143
same,glycan array binding signal (z-score),Gal4S(b1-4)GlcNAc,-0.05
same,glycan array binding signal (z-score),Gal4S6S(b1-4)GlcNAc,-0.357
same,glycan array binding signal (z-score),Gal6P(b1-4)GlcNAc,-0.295
same,glycan array binding signal (z-score),Gal6S(b1-3)GlcNAc,-0.139
same,glycan array binding signal (z-score),Gal6S(b1-3)GlcNAc6S,-0.22
same,glycan array binding signal (z-score),Gal6S(b1-4)Glc,-0.087
same,glycan array binding signal (z-score),Gal6S(b1-4)Glc6S,0.105
same,glycan array binding signal (z-score),Gal6S(b1-4)GlcNAc,-0.182
same,glycan array binding signal (z-score),Gal6S(b1-4)GlcNAc6S,-0.328
same,glycan array binding signal (z-score),GalNAc(a1-3)Gal,-0.2
same,glycan array binding signal (z-score),GalNAc(a1-3)GalNAc,-0.182
same,glycan array binding signal (z-score),[16],-0.166
same,glycan array binding signal (z-score),[17],-0.3
same,glycan array binding signal (z-score),GalNAc(b1-3)Gal,-0.289
same,glycan array binding signal (z-score),[18],-0.023
same,glycan array binding signal (z-score),[19],-0.133
same,glycan array binding signal (z-score),[20],-0.038
same,glycan array binding signal (z-score),GalNAc(b1-3)GalNAc,0.143
same,glycan array binding signal (z-score),GalNAc(b1-3)GlcNAc,-0.319
same,glycan array binding signal (z-score),GalNAc(b1-4)Gal(b1-4)Glc,-0.057
